Data on one molecule can be found in the supplement of paper PMC8728848.

Common to all, as to test: glycan array binding signal (z-score within array); higher = stronger binding
Conditions in all cases: glycan notation: IUPAC condensed, linker removed

Experiment [1] deals with Gal(b1-4)GlcNAc(b1-3)Gal(b1-4)GlcNAc(b1-3)Gal(b1-4)GlcNAc(b1-3)Gal(b1-4)GlcNAc(b1-2)Man(a1-3)[Gal(b1-4)GlcNAc(b1-3)Gal(b1-4)GlcNAc(b1-3)Gal(b1-4)GlcNAc(b1-3)Gal(b1-4)GlcNAc(b1-2)Man(a1-6)]Man(b1-4)GlcNAc(b1-4)GlcNAc. The essentials: (§1)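 From the Consortium for Functional Glycomics database, 3228 arrays were curated, keeping only those whose protein sequence was available. Binding is given as a within-array Z-score averaged across arrays sharing a protein sequence and across linkers. Negative Z-scores can be read as non-binding.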

Experiment [2] concerns the target Gal(b1-4)GlcNAc(b1-3)Gal(b1-4)GlcNAc(b1-3)Gal(b1-4)GlcNAc(b1-3)Gal(b1-4)GlcNAc(b1-2)Man(a1-3)[Gal(b1-4)GlcNAc(b1-3)Gal(b1-4)GlcNAc(b1-3)Gal(b1-4)GlcNAc(b1-3)Gal(b1-4)GlcNAc(b1-2)Man(a1-6)]Man(b1-4)GlcNAc(b1-4)[Fuc(a1-6)]GlcNAc. In outline:
as §1

Experiment [3] deals with Gal(b1-4)GlcNAc(b1-3)Gal(b1-4)GlcNAc(b1-3)Gal(b1-4)GlcNAc(b1-3)Gal(b1-4)GlcNAc(b1-2)[Gal(b1-4)GlcNAc(b1-3)Gal(b1-4)GlcNAc(b1-3)Gal(b1-4)GlcNAc(b1-3)Gal(b1-4)GlcNAc(b1-6)]Man(a1-6)[Gal(b1-4)GlcNAc(b1-3)Gal(b1-4)GlcNAc(b1-3)Gal(b1-4)GlcNAc(b1-3)Gal(b1-4)GlcNAc(b1-2)Man(a1-3)]Man(b1-4)GlcNAc(b1-4)[Fuc(a1-6)]GlcNAc. The essentials: as §1
Experiment [4] concerns the target Gal(b1-4)GlcNAc(b1-3)Gal(b1-4)GlcNAc(b1-3)Gal(b1-4)GlcNAc(b1-3)Gal(b1-4)GlcNAc(b1-3)Gal(b1-4)GlcNAc(b1-2)Man(a1-3)[Gal(b1-4)GlcNAc(b1-3)Gal(b1-4)GlcNAc(b1-3)Gal(b1-4)GlcNAc(b1-3)Gal(b1-4)GlcNAc(b1-3)Gal(b1-4)GlcNAc(b1-2)Man(a1-6)]Man(b1-4)GlcNAc(b1-4)GlcNAc. In outline:
as §1

In experiment [5] the target is Gal(b1-4)GlcNAc(b1-3)Gal(b1-4)GlcNAc(b1-3)Gal(b1-4)GlcNAc(b1-3)Gal(b1-4)GlcNAc(b1-3)Gal(b1-4)GlcNAc(b1-2)Man(a1-3)[Gal(b1-4)GlcNAc(b1-3)Gal(b1-4)GlcNAc(b1-3)Gal(b1-4)GlcNAc(b1-3)Gal(b1-4)GlcNAc(b1-3)Gal(b1-4)GlcNAc(b1-2)Man(a1-6)]Man(b1-4)GlcNAc(b1-4)[Fuc(a1-6)]GlcNAc. The essentials: as §1
Experiment [6] concerns the target Gal(b1-4)GlcNAc(b1-3)Gal(b1-4)GlcNAc(b1-3)Gal(b1-4)GlcNAc(b1-3)Gal(b1-4)GlcNAc(b1-3)Gal(b1-4)GlcNAc(b1-2)[Gal(b1-4)GlcNAc(b1-3)Gal(b1-4)GlcNAc(b1-3)Gal(b1-4)GlcNAc(b1-3)Gal(b1-4)GlcNAc(b1-3)Gal(b1-4)GlcNAc(b1-6)]Man(a1-6)[Gal(b1-4)GlcNAc(b1-3)Gal(b1-4)GlcNAc(b1-3)Gal(b1-4)GlcNAc(b1-3)Gal(b1-4)GlcNAc(b1-3)Gal(b1-4)GlcNAc(b1-2)Man(a1-3)]Man(b1-4)GlcNAc(b1-4)[Fuc(a1-6)]GlcNAc. In outline: as §1

The target of experiment [7] is Gal(b1-4)GlcNAc(b1-3)Gal(b1-4)GlcNAc(b1-3)Gal(b1-4)GlcNAc(b1-3)Gal(b1-4)GlcNAc(b1-3)Gal(b1-4)GlcNAc(b1-3)Gal(b1-4)GlcNAc(b1-2)Man(a1-3)[Gal(b1-4)GlcNAc(b1-3)Gal(b1-4)GlcNAc(b1-3)Gal(b1-4)GlcNAc(b1-3)Gal(b1-4)GlcNAc(b1-3)Gal(b1-4)GlcNAc(b1-3)Gal(b1-4)GlcNAc(b1-2)Man(a1-6)]Man(b1-4)GlcNAc(b1-4)GlcNAc. The essentials:
as §1

Experiment [8] concerns the target Gal(b1-4)GlcNAc(b1-3)Gal(b1-4)GlcNAc(b1-3)GalNAc. The essentials: as §1
Experiment [9] addresses Gal(b1-4)GlcNAc(b1-3)Gal(b1-4)GlcNAc(b1-3)[Gal(b1-4)GlcNAc(b1-3)Gal(b1-4)GlcNAc(b1-6)]GalNAc. In outline:
as §1

In experiment [10] the target is Gal(b1-4)GlcNAc(b1-3)Gal(b1-4)GlcNAc(b1-6)[Gal(b1-3)]GalNAc. In outline: as §1
In experiment [11] the target is Gal(b1-4)GlcNAc(b1-3)Gal(b1-4)[Fuc(a1-3)GlcNAc(b1-6)]Gal(b1-4)Glc. In outline: as §1
Experiment [12] concerns the target Gal(b1-4)GlcNAc(b1-3)Gal(b1-4)[Fuc(a1-3)]GlcNAc(b1-3)Gal(b1-4)[Fuc(a1-3)]GlcNAc. In outline: as §1
Experiment [13] deals with Gal(b1-4)GlcNAc(b1-3)GalNAc. In outline:
as §1

In experiment [14] the target is Gal(b1-4)GlcNAc(b1-3)[Fuc(a1-3)GlcNAc(b1-6)]Gal(b1-4)Glc. In outline:
as §1

Experiment [15] has as its target Gal(b1-4)GlcNAc(b1-3)[Gal(b1-4)GlcNAc(b1-6)]Gal(b1-4)GlcNAc. The essentials:
as §1

Experiment [16] deals with Gal(b1-4)GlcNAc(b1-3)[Gal(b1-4)GlcNAc(b1-6)]GalNAc. In outline:
as §1

Experiment [17] deals with Gal(b1-4)GlcNAc(b1-3)[GlcNAc(b1-6)]Gal(b1-4)GlcNAc. The essentials: as §1
Experiment [18] concerns the target Gal(b1-4)GlcNAc(b1-6)Gal(b1-4)GlcNAc. The essentials: as §1
Experiment [19] addresses Gal(b1-4)GlcNAc(b1-6)GalNAc. The essentials:
as §1

Experiment [20] concerns the target Gal(b1-4)GlcNAc(b1-6)[Gal(b1-3)]GalNAc. The essentials:
as §1

The target in experiment [21] is Gal(b1-4)GlcNAc(b1-6)[Gal(b1-4)GlcNAc(b1-3)]GalNAc. In outline:
as §1

Experiment [22] has as its target Gal(b1-4)GlcNAc6P. The essentials: as §1
The target of experiment [23] is Gal(b1-6)Gal. The essentials:
as §1

The list shows a part of the results.

B1: OrysaEULS2 (Oryza sativa) (protein)
chain: MVYCRANPNYAMTARNGAVVLAPANPKDEYQHWIKDMRWSTSIKDEEGYPAFALVNKATGQAIKHSLGQSHPVRLVPYNPEVMDESVLWTESRDVGNGFRCIRMVNNIYLNFDAFHGDKYHGGVRDGTDIVLWKWCEGDNQRWKIQPYYILEQKLISEEDLNSAVDHHHHHH
In the case of B1, the “glycan array binding signal (z-score)” value in experiment [1] was 0.354; in [2], -0.068; in [3], -0.035; in [4], 0.101; in experiment [5], -0.038; in [6], -0.086. Also, the “glycan array binding signal (z-score)” value in [7] is 0.291; in experiment [8], -0.221; in [9] it was -0.218; in [10] it was -0.172; in experiment [11] it was -0.175; in experiment [12], -0.192. Besides, the “glycan array binding signal (z-score)” value in [13] was -0.186; in [14], -0.291; in [15], -0.203; in experiment [16], -0.183; in experiment [17] it was -0.194; in [18], -0.208. In addition, the “glycan array binding signal (z-score)” value was -0.2 in experiment [19]; -0.206 in experiment [20]; -0.199 in experiment [21]; -0.189 in [22]; -0.21 in [23].
